Data published in article PMC6919601, “Identification of Plasmodium dipeptidyl aminopeptidase allosteric inhibitors by high throughput screening” (PLoS ONE, 2019).
Where “and” joins values, the source holds several entries; their conditions need not be identical. Equal entries are not always repeated. Among all 110,000 compounds or so, about 230 (0.21%) showed an effect of 50% or more. This is one part of the list.

target: DPAP1 (Plasmodium falciparum, UniProt Q8IIJ9); assay: primary screen, percent inhibition; read by cleavage of a fluorogenic dipeptide substrate; higher = more effect of the substance; set-up: species or system P. falciparum D10 trophozoite lysates; single well
Sequence (Q8IIJ9 whole entry, looked up): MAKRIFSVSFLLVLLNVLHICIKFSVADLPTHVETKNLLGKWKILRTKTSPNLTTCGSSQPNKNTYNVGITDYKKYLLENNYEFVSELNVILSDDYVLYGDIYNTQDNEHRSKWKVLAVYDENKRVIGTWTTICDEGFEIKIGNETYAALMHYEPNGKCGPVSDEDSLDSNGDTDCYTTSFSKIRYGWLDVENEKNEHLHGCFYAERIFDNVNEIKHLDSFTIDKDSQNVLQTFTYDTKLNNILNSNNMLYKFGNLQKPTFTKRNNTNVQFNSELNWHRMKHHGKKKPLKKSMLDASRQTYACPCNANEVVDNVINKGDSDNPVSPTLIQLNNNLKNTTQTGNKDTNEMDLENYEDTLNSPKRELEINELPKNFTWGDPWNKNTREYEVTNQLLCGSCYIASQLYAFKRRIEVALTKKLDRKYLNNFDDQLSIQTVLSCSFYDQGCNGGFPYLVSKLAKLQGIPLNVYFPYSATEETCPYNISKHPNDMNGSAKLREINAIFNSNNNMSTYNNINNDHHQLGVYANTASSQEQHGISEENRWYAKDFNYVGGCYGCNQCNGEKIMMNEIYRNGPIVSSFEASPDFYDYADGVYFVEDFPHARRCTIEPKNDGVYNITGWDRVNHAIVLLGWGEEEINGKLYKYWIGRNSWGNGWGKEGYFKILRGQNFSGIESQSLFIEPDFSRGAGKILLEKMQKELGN
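Also: 30 min substrate incubation versus DMSO and 10 µM JCP410 controls.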

| Structure (SMILES) | % Inhibition @ 10 uM |
| --- | --- |
| Cc1cc(C)c2c(CC(=O)N(Cc3ccc(Cl)cc3)C3CCS(=O)(=O)C3)coc2c1 (stereo not shown) | 3.99% |
| Fc1ccc(-c2noc3ncnc(N4CC=C(c5ccccc5)CC4)c23)cc1 | -4.78% |
| O=C(CN(C1CCCCC1)S(=O)(=O)c1ccc(Cl)cc1)NC1CCCC1 | -0.553% |
| CCCOc1ccc(C(=O)Nc2cccnc2)cc1 | 1.25% |
| O=C(Cn1c(SCc2cccc(F)c2)nc2ccncc21)NCc1ccco1 | 1.03% |
| CCOc1ccc2nc(NC3=NCN(Cc4ccccc4)CN3)nc(C)c2c1 | 5.3% |
| Cc1cccc(NC(=O)C23CCC(C)(C(O)C2)C3(C)C)n1 (stereo not shown) | 2.08% |
| Cc1nc2ccc(S(=O)(=O)NC(C(=O)NCc3ccc4c(c3)OCO4)C(C)C)cc2s1 (stereo not shown) | -3.45% |
| CC(C)c1ccc(C2CC(=O)NC(SCC(N)=O)=C2C#N)cc1 (stereo not shown) | 0.851% |
| COc1ccc(C2c3c(oc4ccccc4c3=O)C(=O)N2c2nccs2)cc1OC (stereo not shown) | -7.17% |
| CS(=O)(=O)N(CC(=O)N1CCOCC1)c1ccc(Cl)c(C(F)(F)F)c1 | 4.49% |
| CC1CCN(c2c(NCc3ccc(C(=O)N4CC(C)CC(C)C4)cc3)c(=O)c2=O)CC1 (stereo not shown) | 2.76% |
| CCOc1ccc(S(=O)(=O)Nc2ccc(-c3cn4ccsc4n3)cc2)cc1 | 6.24% |
| COc1ccc(CN2CCN(Cc3ccncc3)CC2)c(OC)c1 | 3.08% |
| CC(=O)c1c(O)cc(C)o/c1=N\c1ccc(O)cc1 | -4.49% |
| CCc1nnc(NC(=O)CSc2nc3c(c(=O)n2CC)SCC3)s1 | -4.16% |
| CNc1ccc(C(=O)N[C@@H](CC(C)C)C(=O)NCC#N)cc1[N+](=O)[O-] | -0.207% |
| CCOc1ccc(CNc2nc3nc(C)cc(O)n3n2)cc1 | -4.19% |
| C=C(C)COc1ccc2c3c(c(=O)oc2c1C)CCCC3 | -2.13% |
| CCOc1ccc(C2CC3=NC(C)=C(C(=O)OCCOC)C(c4cccs4)C3=C(O)C2)cc1OC (stereo not shown) | -2.98% |
| CCCOc1cccc(C2c3c(oc4ccc(F)cc4c3=O)C(=O)N2c2cc(C)ccn2)c1 (stereo not shown) | -5.38% |
| CCC(C)NC(=O)c1cnn2c(C(F)(F)F)cc(-c3ccc4c(c3)OCO4)nc12 (stereo not shown) | -4.72% |

| Structure (SMILES) | % Inhibition @ 10 uM |
| --- | --- |
| O=C(NCc1ccccc1)c1ccc(Br)o1 | -2.03% |
| COc1ccc(Cn2c(C(=O)O)c(CNCc3ccccc3OC)c3ccc(C)cc32)cc1 | -6.62% |
| COC(=O)c1ccccc1NC(=O)c1ccc(Cl)cc1Cl | 0.827% |
| CC(C)(C)c1ccc(C(=O)N2CCN(C/C=C/c3ccccc3)CC2)cc1 | -6.7% |
| N#C/C(=C\c1c(Oc2ccccc2)nc2ccccn2c1=O)c1nc2ccccc2s1 | -31.5% |
| Cc1cccc(C)c1NC(=O)c1cccc(Br)c1 | -5.65% |
| COCCOC(=O)c1c(N)sc2c1CCCC2 | 0.968% |
| CCCSC1=C(C#N)C(c2cc(OC)ccc2OC)CC(=O)N1 (stereo not shown) | 2.36% |
| CCOc1ccccc1C(=O)Nc1nc2ccc(S(N)(=O)=O)cc2s1 | -7.35% |
| Cc1cccnc1NS(=O)(=O)c1cc(Cl)ccc1Cl | -1.56% |
| O=C(Cn1cnc2c(nnn2Cc2ccccc2F)c1=O)c1ccc(Cl)cc1 | -3.94% |
| CN(c1ccc2cccc(O)c2n1)c1ccc2cccc(O)c2n1 | 4.88% |
| O=C(Nc1ccc(Br)cn1)c1cc(Br)ccc1Cl | -0.769% |
| Cc1occc1-c1nnc(SCC(=O)c2ccc3c(c2)OCO3)n1-c1ccccc1 | 3.68% |
| CCc1c(O)n(C(C)CC)c(=S)[nH]c1=O (stereo not shown) | 3.85% |
| O=C(OCc1ccccc1)c1ccc(Oc2nnnn2-c2ccccc2)cc1 | 0.776% |
| COC(=O)c1cc(CSc2nnc(-c3ccccc3)n2-c2ccccc2)oc1C | -6.65% |
| O=C(c1ccc(CNc2c(NC3CCCCC3)c(=O)c2=O)cc1)N1CCCC1 | -4.26% |
| COc1ccc(C(C)C)cc1S(=O)(=O)Nc1ccccn1 | -3.01% |
| CC(C)(C)c1ccc(OCCCCN2CCOCC2)cc1 | -2.12% |
| Cc1cc(C)c2c(n1)SCC(=O)N2Cc1ccc(C(=O)NC2CCCCCC2)cc1 | 1.14% |
| O=S1(=O)N=C(NCCOCc2ccc(Cl)cc2)c2ccccc21 | -1.82% |

| Structure (SMILES) | % Inhibition @ 10 uM |
| --- | --- |
| COc1cccc(CNC(=O)Cn2nc(C)n3cccc3c2=O)c1OC | -0.385% |
| COCCCNc1nc2c(c(=O)n(C)c(=O)n2C)n1Cc1ccccc1Br | 6% |
| CC1CCCN(C(=O)/C(=C/c2cccc(F)c2)NC(=O)c2ccccc2Br)C1 (stereo not shown) | -2.53% |
| N#Cc1ccc(-c2cccnc2)nc1S | 35.2% |
| COc1ccc(N(C(C)C(=O)Nc2cccc(Cl)c2)S(C)(=O)=O)cc1 (stereo not shown) | 3.17% |
| COc1ccc(OCC(=O)Nc2nc3ccccc3s2)cc1 | -1.57% |
| CC(C)(CNC(=O)c1ccc(F)cc1)CNC(=O)c1ccc(F)cc1 | -7.08% |
| COc1ccccc1-c1cc(C(=O)N2C(C)CCCC2C)no1 (stereo not shown) | 0.0654% |
| COc1ccccc1CNCc1c(C(=O)O)c(C)n(Cc2ccccc2C)c1C | 4.53% |
| COc1cccc(C(=O)Nc2ccccc2O)c1OC | 2.64% |
| CC1CCCCC1NC(=O)C1C2CCC(C2)C1C(=O)O (stereo not shown) | -1.11% |
| COCCNC(=O)CSc1nc2ccccc2c2nc(CCn3nc(C)cc3C)nn12 | 0.569% |
| Cc1ccc2c(cnn2C(=O)CCCC(=O)NCCCN2CCN(C)CC2)c1 | 0.623% |
| CC(C)NCCc1c[nH]c2ccccc12 | 1.13% |
| COc1ccc(-c2nc(N)n(C(=O)c3ccc(C)cc3)n2)cc1 | -4.77% |
| Cc1ccccc1NC(=O)c1cccc(NC(=O)CCC(=O)O)c1 | 3.86% |
| O=S(=O)(c1ccc(Br)cc1)N1CCN(C/C=C/c2ccccc2)CC1 | 3.9% and 1.52% |
| COc1ccc(C2CC(c3ccc(OC)cc3OC)n3ncnc3N2)cc1 (stereo not shown) | 0.0842% |
| CC1CC2=C(CC1/C=N/NC(N)=S)C(C)(C)CCC2 (stereo not shown) | 0.275% |
| C=CCOc1c(Br)cc(C2C(C#N)=C(N)Oc3cc4c(cc32)OCO4)cc1OC (stereo not shown) | 0.851% |
